Our source for the Potency values is PubChem BioAssay AID360 (National Center for Advancing Translational Sciences (NCATS), 2006).

Molecules are shown by their SMILES. Hit rate of the full screen: of about 48,000 compounds, about 550 (1.1%) were called active. Not shown: some 4% with an inconclusive outcome. Rule as the data show it: active = potency below about 15 µM; inconclusive = mostly about 16 µM to 33 µM; inactive = weaker than that. The list shows a part of the results.
Potency is read from the fitted curve at half-maximal effect.

UniProt P04062, sequence (P04062 whole entry, looked up): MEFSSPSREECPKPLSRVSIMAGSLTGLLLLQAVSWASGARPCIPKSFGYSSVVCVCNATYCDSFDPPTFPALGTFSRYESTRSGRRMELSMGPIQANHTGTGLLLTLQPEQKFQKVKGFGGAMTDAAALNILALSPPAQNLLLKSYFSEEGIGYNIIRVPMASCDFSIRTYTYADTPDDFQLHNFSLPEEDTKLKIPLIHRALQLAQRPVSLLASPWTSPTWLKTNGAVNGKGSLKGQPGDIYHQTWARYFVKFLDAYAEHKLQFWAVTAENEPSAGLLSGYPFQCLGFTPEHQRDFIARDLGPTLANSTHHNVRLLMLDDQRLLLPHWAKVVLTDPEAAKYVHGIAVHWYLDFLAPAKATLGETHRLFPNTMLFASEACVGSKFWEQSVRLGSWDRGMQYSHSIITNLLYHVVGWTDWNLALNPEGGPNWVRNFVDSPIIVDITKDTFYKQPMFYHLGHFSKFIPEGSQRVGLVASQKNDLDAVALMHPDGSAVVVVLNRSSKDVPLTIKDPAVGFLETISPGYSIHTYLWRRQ

For this assay, the target named is Lysosomal acid glucosylceramidase (Homo sapiens) (UniProt P04062). The assay is described as follows: Glucocerebrosidase.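 Also: the screen sought inhibitors.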 The settings on record: purified enzyme, resorufin glucoside fluorescence (screen aimed at inhibitors), 20 min. An outline of the steps:
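Wild-type enzyme at 0.2 nM final in 50mM citric acid/KH2PO4, 10mM sodium taurocholate, 0.01% tween-20, pH 5.9, with resorufin beta-D-glucopyranoside at 30 uM final. Compounds titrated, 20 min at RT, red fluorescence read; AC50 from titration.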
For the compound `COc1cc(NC(=O)C2CCCCC2)c(OC)cc1NC(=O)CN1CCCCC1`, the Potency is inactive: > 76.9 µM.
Consider `Cc1cc(CN2CCOCC2)c(O)c(C2(C)CCCCC2)c1`, for which the Potency was inactive: > 76.9 µM.
`COc1ccc(C(=O)NCCn2ccc3ccccc32)cc1`: the Potency is inactive: > 76.9 µM.
With `COc1ccccc1N1CCN(c2nc(C)nc3c2oc2ccccc23)CC1`, the Potency was inactive: > 76.9 µM.
With `CCC1=C/C(=C\c2ccc3c(c2)OCO3)C(=O)S1`, the Potency is inactive: > 76.9 µM.
As to `CCOC(=O)N1CCC(NC(=O)CSCc2nc(-c3cccc(OC)c3)oc2C)CC1`, the Potency was inactive: > 76.9 µM.
As for `O=C(CCN1CCc2ccccc2C1)c1ccc2c(c1)OCCO2`, the Potency is inactive: > 76.9 µM.
Take `CC(C)N(Cc1nc(-c2ccccc2)no1)C(=O)C(C)(C)C`: the Potency is inactive: > 76.9 µM.
As for `COc1ccc(N2CCN(C(=O)c3cn(C)c(=O)c4c3c3ccccc3n4C)CC2)cc1`, the Potency is inactive: > 76.9 µM.
To `Cc1ccccc1N(CC(=O)NCc1ccc2c(c1)OCO2)C(=O)CCC(=O)Nc1ccccn1` belongs inactive: > 76.9 µM; to `CCOCCCNS(=O)(=O)c1ccc(Br)cc1`, inactive: > 76.9 µM; to `Cc1cc(N2C(=O)CC(N3CCN(C(c4ccccc4)c4ccccc4)CC3)C2=O)no1` (centres undefined), inactive: > 76.9 µM.
On to `CCN(CC)C(=O)CSc1nc2ccccc2c(=O)n1CCC(=O)NCc1ccc(F)cc1`, for which the Potency is inactive: > 76.9 µM.
In the case of `Cc1cc(NC(=O)Cn2cnc3c(cnn3C(C)(C)C)c2=O)no1`, the Potency was inactive: > 76.9 µM.
Take `COC(=O)c1ccc(N2C(=O)CC(NCc3ccccc3)C2=O)cc1` (centres undefined): the Potency is inactive: > 76.9 µM.
Turning to `C=CCSc1nnc(Cc2cc(=O)[nH]c(=O)[nH]2)n1-c1cc(C)ccc1C`, the Potency was inactive: > 76.9 µM.
Regarding `O=C(O)c1cc(-c2ccccc2)nc2ccccc12`, the Potency was inactive: > 76.9 µM.
On to `O=C(c1cccn2c(=O)c3cc(Cl)ccc3nc12)N1CCOCC1`, for which the Potency is inactive: > 76.9 µM.
In the case of `CCNC(=O)/N=C1/NC(=O)C(C(C)C)O1` (centres undefined) it was inactive: > 76.9 µM; in that of `CCOc1cc(C(=O)NCc2ccncc2)cc(OCC)c1OCC`, inactive: > 76.9 µM.
In the case of `Nc1c(C(=O)NCC2CCCO2)c2nc3ccccc3nc2n1-c1ccccc1` (centres undefined) it was inactive: > 76.9 µM.
Take `O=C(CSc1nc(-c2ccccc2)cs1)N1CCN(C(=O)c2ccco2)CC1`: the Potency is inactive: > 76.9 µM.
Take `Cc1nc(NCc2ccc3c(c2)OCO3)c2oc3ccccc3c2n1`: the Potency was inactive: > 76.9 µM.
In the case of `CS(=O)CSc1nc2c(cc1C#N)CCCC2` (centres undefined) it was inactive: > 76.9 µM; in that of `CN(C(=O)c1cccc(C#N)c1)c1nnc(C2CCCO2)s1` (centres undefined), inactive: > 76.9 µM.
In the case of `COc1ccc(C2CC(=O)C3=C(C2)Nc2ccccc2N(C(C)=O)C3c2ccco2)cc1` (centres undefined), the Potency is inactive: > 76.9 µM.
To `CCOC(=O)N1CCN(c2ccc(S(=O)(=O)N(Cc3ccccc3)Cc3ccccc3)cn2)CC1` belongs inactive: > 76.9 µM; to `Cc1ccc2oc(C(=O)NCc3ccc4c(c3)OCO4)c(C)c2c1`, “inactive”.
On to `CCCC(C(=O)NC1CCCC1)N(CCCN1CCOCC1)C(=O)c1snc(C(N)=O)c1N` (centres undefined), for which the Potency is inactive: > 76.9 µM.
Turning to `CN1C(=O)CSc2ccc(NC(=O)NCc3cccnc3)cc21`, the Potency is inactive: > 76.9 µM.
In the case of `CC(C)C(OC(=O)c1cc2occc2n1C)C(=O)NCc1ccc2c(c1)OCO2` (centres undefined), the Potency was inactive: > 76.9 µM.
To `c1ccc(-n2ncc3c2ncn2cnnc32)cc1` belongs inactive: > 76.9 µM; to `CC(C)C(=O)Nc1cc(C(F)(F)F)ccc1N1CCOCC1`, inactive: > 76.9 µM; to `CCOC(=O)N=S(N)(=O)c1ccccc1` (centres undefined), inactive: > 76.9 µM.
Turning to `NC(=O)c1c(NC(=O)c2cc3ccccc3o2)sc2c1CCC2`, the Potency was inactive: > 76.9 µM.
Take `O=C1CCCC2=C1C(c1ccncc1)c1c(nc(SCc3ccccc3)[nH]c1=O)N2` (centres undefined): the Potency is inactive: > 76.9 µM.
In the case of `NC(=O)c1ccsc1NC(=O)CN1C(=O)C2CC=CCC2C1=O` (centres undefined) it was inactive: > 76.9 µM.
For the compound `CCCCCC(=O)Nc1ccc(N2CCN(S(C)(=O)=O)CC2)cc1`, the Potency is inactive: > 76.9 µM.
To `N#Cc1c(-c2ccco2)cc(-c2ccccn2)nc1N` belongs inactive: > 76.9 µM.
For the compound `CN1C(=O)C2(C(C#N)=C(N)Oc3n[nH]c(-c4ccc(Cl)cc4)c32)c2ccccc21` (centres undefined), the Potency was inactive: > 76.9 µM.
Turning to `O=C(NCc1nc(-c2ccccc2)no1)c1ccc2c(c1)OCO2`, the Potency was inactive: > 76.9 µM.
For `CC(C)CNc1cc(=O)n(C)c(=O)n1C`, the Potency is inactive: > 76.9 µM.
Regarding `O=C(Nc1ccccc1C(=O)N1CCOCC1)C1COc2ccccc2O1` (centres undefined), the Potency was inactive: > 76.9 µM.
As for `CC1(c2ccccn2)Nc2ccccc2-c2nc3ccccc3n21` (centres undefined), the Potency was inactive: > 76.9 µM.
Consider `O=C(CN1C(=O)CCS(=O)(=O)c2ccccc21)Nc1ccc2c(c1)OCCO2`, for which the Potency is inactive: > 76.9 µM.
Consider `CC(C)Oc1ccc(C(CC(=O)O)NC(=O)CSc2ncn[nH]2)cc1` (centres undefined), for which the Potency is inactive: > 76.9 µM.
With `NC(=O)CSc1nnc(-c2ccc(S(=O)(=O)N3CCCC3)cc2)n1Cc1ccco1`, the Potency is inactive: > 76.9 µM.
Consider `Cc1cc2c(ccc3c2no[n+]3[O-])nn1`, for which the Potency was inactive: > 76.9 µM.
With `Cc1cc(C)c(C(N)=O)c(Nc2cccc(Cl)c2C)n1`, the Potency was inactive: > 76.9 µM.
On to `O=C(c1ccco1)N1CCN(C(=O)c2ccc(COc3ccc(F)cc3)o2)CC1`, for which the Potency was inactive: > 76.9 µM.
For the compound `Brc1c(CSc2nncn2-c2ccccc2)nc2sccn12`, the Potency was inactive: > 76.9 µM.
In the case of `Cc1cc(C(=O)OCc2nc3ccccc3s2)c(C)o1`, the Potency was inactive: > 76.9 µM.
On to `Cn1c(=O)[nH]c(=O)c2c1nc(NCCCn1ccnc1)n2Cc1ccccc1`, for which the Potency was inactive: > 76.9 µM.
As for `Cc1cc(C(=O)O)cc(S(=O)(=O)N2CCOCC2)c1C`, the Potency is inactive: > 76.9 µM.
To `O=C(O)c1cccc(Nc2nc(N3CCOCC3)nc(N3CCOCC3)n2)c1` belongs inactive: > 76.9 µM.
For `O=C(Cn1[nH]c(=O)c2ccccc2c1=O)N1CC=C(c2ccccc2)CC1`, the Potency is inactive: > 76.9 µM.
As to `Clc1cc(Cl)c2nc(N3CCCC3)sc2c1`, the Potency is inactive: > 76.9 µM.
Regarding `O=C(Oc1ccc2c(c1)OCC2=O)c1ccccc1`, the Potency is inactive: > 76.9 µM.
`CCOc1ccc2nc(SCC(=O)NC3CCS(=O)(=O)C3)[nH]c2c1` (centres undefined): the Potency was inactive: > 76.9 µM.
In the case of `Nc1c(C(=O)NCCN2CCOCC2)c2nc3ccccc3nc2n1-c1ccccc1`, the Potency is inactive: > 76.9 µM.
In the case of `COCCSc1nnc(NS(=O)(=O)Cc2ccccc2)s1`, the Potency is inactive: > 76.9 µM.
For the compound `COc1ccc(Cc2nnn(CC(=O)O)n2)cc1`, the Potency was inactive: > 76.9 µM.
For the compound `CCC1(CC)Cc2ccccc2-c2nc(CN3CCOCC3)[nH]c(=O)c21`, the Potency is inactive: > 76.9 µM.
As for `CCn1ncc(Br)c1C(=O)Nc1cc(C)ccc1F`, the Potency is inactive: > 76.9 µM.
Turning to `CCOc1ccccc1-n1c(SCC(N)=O)nnc1-c1ccc(O)cc1`, the Potency was inactive: > 76.9 µM.
In the case of `Cc1n[nH]c(=O)nc1N1CCc2ccccc2C1` it was inactive: > 76.9 µM.
To `Cc1cccc(N(C2C=CS(=O)(=O)C2)S(=O)(=O)c2ccccc2)c1` (centres undefined) belongs inactive: > 76.9 µM; to `CCOC(=O)c1cccc(N2C(=O)C3C(C(=O)NC4CC4)C4(C)C=CC3(O4)C2C(=O)NC(C)(C)C)c1` (centres undefined), inactive: > 76.9 µM.
To `COc1ccccc1-n1c(CNC(=O)c2ccco2)nnc1SCC(=O)Nc1ccc(F)cc1` belongs inactive: > 76.9 µM; to `CN(Cc1ccccc1)S(=O)(=O)c1ccc(C(=O)Nc2nnc(C3CC3)o2)cc1`, “inactive”; to `O=C(Nc1ccc(-c2noc(CCc3ccccc3)n2)cc1)c1ccco1`, inactive: > 76.9 µM.
As to `COC(=O)c1cccc(NC(=O)CN2CCC(NC(=O)c3cc(OC)c(OC)c(OC)c3)CC2)c1`, the Potency is inactive: > 76.9 µM.
As for `COc1ccc(CN2C(=O)C3C4C=CC(C4)C3C2=O)cc1` (centres undefined), the Potency is inactive: > 76.9 µM.
As for `CCN(CC)CCCn1c(=S)[nH]c2cc(Cl)ccc2c1=O`, the Potency was inactive: > 76.9 µM.
For `CC(C)(C)c1[nH]nc2c1C(c1ccccc1OC(=O)N1CCOCC1)C(C#N)=C(N)O2` (centres undefined), the Potency was inactive: > 76.9 µM.
`CCn1c(CNC(=O)c2cccs2)nnc1SCC(=O)NCCc1ccccc1`: the Potency was inactive: > 76.9 µM.
On to `O=C(COC(=O)c1cccc(S(=O)(=O)N2CCN(c3ccccc3)CC2)c1)NCc1ccco1`, for which the Potency was inactive: > 76.9 µM.
As to `COC(=O)Cn1c(C)c(C(C)=O)c(C(C)=O)c1C`, the Potency was inactive: > 76.9 µM.
Turning to `CC(C)CC(c1nnnn1CC1CCCO1)N1CCN(c2nc3ccccc3s2)CC1` (centres undefined), the Potency entry is “inactive”.
To `CCOCCCNC(=O)NC12CC3CC(CC(C3)C1)C2` belongs inactive: > 76.9 µM.
Take `COc1ccc(NC(=O)CSc2nnc(-c3cccs3)n2Cc2ccco2)cc1OC`: the Potency is inactive: > 76.9 µM.
`O=C(CSc1nnnn1-c1ccccc1)Nc1ccc(Cl)cn1`: the Potency was inactive: > 76.9 µM.
Take `NS(=O)(=O)c1ccc(CCNC2CC(=O)N(Cc3ccccc3)C2=O)cc1` (centres undefined): the Potency is inactive: > 76.9 µM.
Turning to `O=C(CSc1ccc2nnc(-c3ccc(F)cc3)n2n1)N1CCCCC1`, the Potency is inactive: > 76.9 µM.
To `CC1CCCN(c2nc3c(c(=O)n(C)c(=O)n3C)n2CCSc2nc3ccccc3o2)C1` (centres undefined) belongs inactive: > 76.9 µM.
In the case of `CCOC(=O)N1CCC(NS(=O)(=O)c2ccc3c(c2)oc(=O)n3C)CC1` it was inactive: > 76.9 µM.
To `Cc1cc(C)n(-c2nc(NCC(C)O)c3c4c(sc3n2)CCCC4)n1` (centres undefined) belongs inactive: > 76.9 µM.
`CCC1(c2ccc(F)cc2)NC(=O)N(CC(=O)N2CCOCC2)C1=O` (centres undefined): the Potency is inactive: > 76.9 µM.
On to `CCn1c(SCC(=O)c2ccc(F)cc2)nnc1-c1ccoc1C`, for which the Potency was inactive: > 76.9 µM.
